According to publication PMC6108835, “Target-Based Discovery of an Inhibitor of the Regulatory Phosphatase PPP1R15B” (Cell, 2018):

Molecular target: T1, bio-PP1c^1-322 (biotinylated PP1c) (human, UniProt P36873, biotin on the N-terminal biotin acceptor peptide (BAP))
T1 construct: human PP1cγ, catalytic subunit of protein phosphatase 1, aa 1-322; Only partially pure before capture; also called PP1cγ; PP1γc^1-322; source: Sf9 insect cells (baculovirus, pDW464, biotinylated in vivo by BirA), partially purified (HiTrap Q, Superdex 200); not shown: biotin acceptor peptide (BAP), N-terminal, kept
T1 sequence (P36873 1-322): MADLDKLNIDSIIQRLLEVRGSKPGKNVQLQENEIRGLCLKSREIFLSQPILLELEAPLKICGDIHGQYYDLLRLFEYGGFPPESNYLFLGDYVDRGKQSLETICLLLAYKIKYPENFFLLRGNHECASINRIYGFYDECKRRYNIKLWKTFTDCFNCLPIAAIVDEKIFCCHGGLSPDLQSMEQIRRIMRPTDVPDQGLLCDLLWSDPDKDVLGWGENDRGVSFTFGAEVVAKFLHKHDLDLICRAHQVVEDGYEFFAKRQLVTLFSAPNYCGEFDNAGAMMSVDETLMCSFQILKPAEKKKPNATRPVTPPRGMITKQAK
Test: pull-down; partially purified bio-PP1c held on neutravidin agarose beads, washed, then incubated with or without 10 μM R15 (A or B) overnight at 4°C in IP buffer (50 mM Tris pH 7.5, 100 mM NaCl, 0.1 mM EGTA, 0.05% Tween 20, 0.1% NP40); Coomassie-stained gel, streptavidin-HRP blot
Details: both partners purified

B1: MBP-R15A^[…]-His (domain or fragment, human)
chain: EAECPPCIPPPSAFLKAWVYWPGEDTEEEEDEEEDEDSDSGSDEEEGEAEASSSTPATGVFLKSWVYQPGEDTEEEEDEDSDTGSAEDEREAETSASTPPASAFLKAWVYRPGEDTEEEEDEDVDSEDKEDDSEAALGEAESDPHPSHPDQRAHFRGWGYRPGKETEEEEAAEDWGEAEPCPFRVAIYVPGEKPPPPWAPPRLPLRLQRRLKRPETPTHDPDPETPLK[… about 80 residues …]APIPALTQTLPS
notes: PPP1R15A (R15A), regulatory subunit of protein phosphatase 1, […]; Construct in pMAL-c5x as described in Das et al., 2015; also called PPP1R15A; source: E. coli BL21-Gold (DE3) pLysS, purified (HisTrap, MBPTrap); not shown: MBP, N-terminal, kept; His6, C-terminal, kept
- binding result: binds
